# In patent US20230303649A1 (published 2023):
# T1: mouse IL-2R (on mouse Tregs) (mouse, UniProt P01590 22-268; P16297 27-539; P34902 23-369)
# T1 sequence (looked up) 1: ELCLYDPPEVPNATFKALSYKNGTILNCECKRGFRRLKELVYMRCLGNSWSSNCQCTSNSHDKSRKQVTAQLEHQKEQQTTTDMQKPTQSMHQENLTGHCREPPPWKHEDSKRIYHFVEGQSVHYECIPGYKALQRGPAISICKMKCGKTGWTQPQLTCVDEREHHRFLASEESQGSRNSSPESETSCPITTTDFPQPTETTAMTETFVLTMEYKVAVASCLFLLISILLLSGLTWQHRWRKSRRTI
# T1 sequence (looked up) 2: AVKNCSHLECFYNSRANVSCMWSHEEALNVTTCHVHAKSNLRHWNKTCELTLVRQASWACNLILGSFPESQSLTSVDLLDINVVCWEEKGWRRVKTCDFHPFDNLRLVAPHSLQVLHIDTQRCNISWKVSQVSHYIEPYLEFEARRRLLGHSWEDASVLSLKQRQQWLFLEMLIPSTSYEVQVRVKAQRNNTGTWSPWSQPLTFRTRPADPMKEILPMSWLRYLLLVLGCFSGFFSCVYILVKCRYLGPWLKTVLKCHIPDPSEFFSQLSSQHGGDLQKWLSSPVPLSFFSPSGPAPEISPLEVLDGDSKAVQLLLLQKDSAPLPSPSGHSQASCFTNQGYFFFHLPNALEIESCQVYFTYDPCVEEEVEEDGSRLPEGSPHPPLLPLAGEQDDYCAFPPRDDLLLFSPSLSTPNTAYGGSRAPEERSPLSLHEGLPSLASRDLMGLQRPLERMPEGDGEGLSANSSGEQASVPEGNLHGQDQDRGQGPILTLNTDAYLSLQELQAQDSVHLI
# T1 sequence (looked up) 3: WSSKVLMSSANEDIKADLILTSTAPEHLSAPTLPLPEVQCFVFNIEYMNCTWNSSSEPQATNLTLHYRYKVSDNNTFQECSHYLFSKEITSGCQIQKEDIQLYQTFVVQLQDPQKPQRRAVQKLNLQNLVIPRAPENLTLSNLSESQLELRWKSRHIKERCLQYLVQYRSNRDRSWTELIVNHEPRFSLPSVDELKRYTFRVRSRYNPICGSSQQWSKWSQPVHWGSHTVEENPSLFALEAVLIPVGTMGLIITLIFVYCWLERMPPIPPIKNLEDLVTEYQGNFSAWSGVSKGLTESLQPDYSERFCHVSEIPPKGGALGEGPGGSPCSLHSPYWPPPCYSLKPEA
# T2: IL-2R on human primary T cells (human, UniProt P01589 22-272; P14784 27-551; P31785 23-369)
# T2 sequence (looked up) 1: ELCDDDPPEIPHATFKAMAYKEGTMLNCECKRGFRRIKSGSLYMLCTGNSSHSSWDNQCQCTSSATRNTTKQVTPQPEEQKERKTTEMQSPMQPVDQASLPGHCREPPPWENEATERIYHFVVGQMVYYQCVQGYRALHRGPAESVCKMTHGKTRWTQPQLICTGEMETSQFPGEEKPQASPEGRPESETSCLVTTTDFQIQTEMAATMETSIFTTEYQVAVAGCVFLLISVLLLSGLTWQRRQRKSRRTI
# T2 sequence (looked up) 2: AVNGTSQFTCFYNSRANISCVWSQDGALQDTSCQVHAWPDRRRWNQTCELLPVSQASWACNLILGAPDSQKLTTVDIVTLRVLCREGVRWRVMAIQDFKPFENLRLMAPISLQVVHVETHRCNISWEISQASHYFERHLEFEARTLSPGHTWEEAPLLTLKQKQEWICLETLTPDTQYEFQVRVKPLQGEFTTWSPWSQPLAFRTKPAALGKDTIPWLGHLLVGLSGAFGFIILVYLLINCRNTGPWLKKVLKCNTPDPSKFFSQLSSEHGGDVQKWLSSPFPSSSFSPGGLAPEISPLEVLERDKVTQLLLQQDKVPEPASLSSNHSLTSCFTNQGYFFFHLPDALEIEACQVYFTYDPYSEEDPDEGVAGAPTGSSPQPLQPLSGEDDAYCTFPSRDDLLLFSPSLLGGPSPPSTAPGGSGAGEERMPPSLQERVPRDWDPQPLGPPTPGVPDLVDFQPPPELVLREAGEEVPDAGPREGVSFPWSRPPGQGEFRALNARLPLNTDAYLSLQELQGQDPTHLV
# T2 sequence (looked up) 3: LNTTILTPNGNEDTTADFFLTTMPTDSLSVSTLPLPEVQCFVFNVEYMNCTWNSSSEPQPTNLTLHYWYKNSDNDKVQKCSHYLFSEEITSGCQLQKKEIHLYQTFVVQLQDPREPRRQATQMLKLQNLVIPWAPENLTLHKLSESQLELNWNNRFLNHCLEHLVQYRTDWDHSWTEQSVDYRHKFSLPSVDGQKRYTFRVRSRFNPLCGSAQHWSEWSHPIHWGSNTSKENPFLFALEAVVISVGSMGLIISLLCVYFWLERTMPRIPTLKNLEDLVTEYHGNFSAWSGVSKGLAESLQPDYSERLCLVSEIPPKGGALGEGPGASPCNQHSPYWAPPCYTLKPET
# Columns and labels:
# Assay in all cases: cell-based or functional assay
# [1] = molecular target: T1, mouse IL-2R (on mouse Tregs)
# [2] = molecular target: T2, IL-2R on human primary T cells
# [3] = molecular target: cynomolgus IL-2R (on cynomolgus monkey Tregs) (cynomolgus monkey)
# [4] = molecular target: T2, IL-2R on human primary T cells; remark: listed apart in the source
binder,measurement,setting,value
Aldesleukin (SEQ ID NO: 2) (ligand) not shown,"Treg mouse, potency of STAT5 activation",[1],0.016
same,"Treg human, potency of STAT5 activation",[2],0.025
same,"Treg cyno, potency of STAT5 activation",[3],0.06
same,"CD8 EC50 (nM), STAT5 phosphorylation",[4],9.07 nM
same,"Treg EC50 (nM), STAT5 phosphorylation",[4],0.019 nM
